From publication PMC11603075 (Communications Biology, 2024)

Tested on: KDM4D
Assay: LC–MS conversion (RDM and hydroxylation), KDM4D
Format: biochemical, human
Conditions: 120 min; for % +16 Da / % -14 Da: 10 µM peptide; for % product formation (combined RDM and apparent hydroxylation): LC–MS
Description: MS-based screening assays with peptides and calf thymus histones were as reported; see Supplementary Table 6 for conditions. Time course assays were based on reported procedures. In brief, equal volumes of the enzyme and substrate solutions were combined to initiate the reaction; 10 µL of 2% (v/v) formic acid (HCOOH) in ddH2O or 100% methanol was added to 10 µL of the reaction mixture to quench reactions at different time points. Unless otherwise stated, time course assays were carried out in triplicate. In some cases, LC–MS was used instead of MALDI-TOF MS to avoid a MALDI matrix induced artefact with the hydroxylated product (Supplementary Fig. 16).
Supplementary Figure 6 Conversion of H2a peptides with increased concentrations of KDM4D.
Comparison of combined RDM and apparent hydroxylation activities of KDM4E and KDM4D with H2a(1– 20) and H2a(1–20 )R3 me2a. (a) Representative LC–MS spectra showing (120-minute incubation) (from top to bottom) KDM4E at 2 µM, KDM4D at 2 µM, and KDM4D at 10 µM with (from left to right) H2 a(1 –2 0 ) a n d […]
shift (hydroxylation). Charge state of labelled ions: [M + H]5+. *Low-level peaks indicating ~5% – 14 Da/+16 Da. (b) Bar graph comparing % product formation by KDM4E and KDM4D of H2a(1–20) and H2a(1– 20)R3me2a; n = 3 (independent assays). Se e Supplementary Table 6 for assay conditions.
(1 picture or pasted object on this page, not shown here)
Supplementary Figure 13 Reactivity of KDM4D with the H2a peptide panel. Representative LC–MS (12 0-minute incubation) of KDM4D at 10 µM with: (a) H2 a(1 –20)R20me2a, (b) H 2 a( 1–20)R20 me2 s, (c) H 2 a( 1– […]
was observed. Charge state of labelled ions: [M + H]5+. Y-axis: relative abundance (%). (e) Bar graph and (f) […]
21)K9me3. n = 2/3 (independent assays). Conditions: 10 µM peptide, 200 µM 2OG, 100 µM sodium L-ascorbate, 10 µM (NH4)2F e ( SO 4)2, and 50 mM HEPES (pH 7.5). […]
[ E nz ym e] [Peptide] [2OG] [Ascorbate] [(NH4)2F e(S O4)2] [TCEP] Buffer pH7.5 Enzyme Cognate substrate (mM) (mM) (mM) (mM) (mM) (mM) [HE PE S]
Supplementary Table 6 Summary of MS assay conditions for substrate screening. These conditions enabled efficient turnover of established substrates. Reactions were carried out at 37 °C unless otherwise st ated. […]

Substance	% +16 Da (KDM4D 10 µM, replicate 1)	% -14 Da (KDM4D 10 µM, replicate 1)	% +16 Da (KDM4D 10 µM, replicate 2)	% -14 Da (KDM4D 10 µM, replicate 2)	% +16 Da (KDM4D 10 µM, replicate 3)	% -14 Da (KDM4D 10 µM, replicate 3)	% product formation (combined RDM and apparent hydroxylation) (KDM4D 2 µM, replicate 1)	% product formation (combined RDM and apparent hydroxylation) (KDM4D 2 µM, replicate 2)	% product formation (combined RDM and apparent hydroxylation) (KDM4D 2 µM, replicate 3)	% product formation (combined RDM and apparent hydroxylation) (KDM4D 10 µM, replicate 1)	% product formation (combined RDM and apparent hydroxylation) (KDM4D 10 µM, replicate 2)	% product formation (combined RDM and apparent hydroxylation) (KDM4D 10 µM, replicate 3)
AR T KQ T AR K[ me 3] ST GGKAPR KQ L A [H3(1–21)K9me3, reference compound]	0%	95.001%	0%	95.7063%	0%	91.3565%						
Ac - SGR [ me 2a ] GKQ GGKAR AKAKT R SSR [H2a(1–20)R3me2a, H2a(1–20)R3me2a without a biotin tag]	3.625%	8.926%	2.853%	8.658%			14.2166%	14.2231%	11.5331%	12.5507%	11.5106%	10.7196%
